Results: PubChem BioAssay AID1963972 (Molecular Pharmacology Branch, DTP, NCI, 2024)
Certain results were filed several times, with different values. The other results are left out here. An entry can have further records. The records of an entry are repeats in other runs, samples, wells, individuals or studies. Marks such as (2×) say how often a value occurs here.

Tested on: 945468-187-T-J2-PDC spheroids viability
Test: Anticancer human tumor 945468-187-T-J2-PDC patient-derived rectal carcinoma cell line growth inhibition [PI3K]
Conditions: spheroids with HUVEC and MSC; for viability, T/C: stronger effect = lower value
Source text: Combinatorial screen of targeted agents with the PI3K inhibitors inavolisib, alpelisib, duvelisib, and copanlisib in multi-cell type tumor spheroids
A high-throughput screen of multi-cell type tumor spheroids was designed to identify active combinations of targeted small molecules and PI3K pathway inhibitors. Complex spheroids include a stromal component modeled by human endothelial cells (HUVEC) and fibroblasts modeled by human mesenchymal stem cells (MSCs). The concentration ranges selected for each drug and investigational agent were based upon clinically achievable concentrations if the clinical Cmax of the agent was known.
Compounds. The drugs and investigational agents: inavolisib (NSC800729), alpelisib (NSC765974), duvelisib (NSC772469), copanlisib (NSC816437), ipatasertib (NSC767898), afuresertib (NSC778305), talazoparib (NSC767125), sapanisertib (NSC764658), selumetinib (NSC741078), tovorafenib (DAY101, NSC766906), vemurafenib (NSC761431), ravoxertinib (NSC781343), sotorasib (NSC818433), MRTX1133 (NSC 836407), abemaciclib (NSC 768073), palbociclib (NSC758247), venetoclax (NSC 766270), SY5609 (NSC837396), enzalutamide (NSC755605), and darolutamide (NSC825331), were obtained from the National Cancer Institute (NCI) Developmental Therapeutics Program Chemical Repository. The FDA-approved anticancer drug set is available from the NCI Developmental Therapeutics Program. […] The stock solutions were prepared in dimethyl sulfoxide (DMSO, Sigma-Aldrich, St. Louis, MO, cat. D2650) at 800-fold the tested concentration and stored at -70 degrees C prior to their use. All drugs and investigational agents were tested over a range starting from a high concentration at or near the clinical Cmax and decreasing in half-log increments. If the clinical Cmax for an agent had not been determined, the highest concentration tested was 10 microM.
Cell Culture. All cells were maintained in an incubator at 37 degrees C and 5% CO2 with 95% humidity. The PDC lines were cultured according to standard operating procedures established by the NCI PDMR (https://pdmr.cancer.gov/sops/default.htm). All PDCs were thawed and cultured in Matrigel-coated flasks prepared with a working solution of 1X Ham's F-12 nutrient mix, without supplementation (Invitrogen, Waltham, MA, cat. 11765054), 100 U/mL penicillin-streptomycin (Invitrogen, cat. 15140122), and 2.5% Matrigel (Corning Inc., Corning, NY, cat. 354248) for the first three passages. The 354836-022-R-J1-PDC, 475296-252-R-J1-PDC, and 997726-040-R-J2-PDC lines were cultured in 6A media, which includes advanced DMEM/F-12 (Thermo Fisher Scientific, cat. 12634028), 10 mM HEPES (Thermo Fisher Scientific, cat. 15630080), 1X GlutaMAX supplement (Thermo Fisher Scientific, cat. 35050061), 0.1 mg/mL primocin (InvivoGen, San Diego, CA, cat. ant-pm-2), 10% defined fetal bovine serum, heat inactivated (HyClone Laboratories Inc., Logan, UT, cat. SH30070.03HI), 50% L-WRN conditioned media (ATCC, cat. CRL-3276), 1.25 mM N-Acetyl-L-cysteine (Sigma-Aldrich, cat. A9165), 10 mM nicotinamide (Sigma-Aldrich, cat. N0636), 1X B-27 supplement (Thermo Fisher Scientific, cat. 17504044), 1X N-2 supplement (Thermo Fisher Scientific, cat. 17502048), and 10 microM Y-27632 dihydrochloride (Tocris Bioscience, Bristol, United Kingdom, cat. 1254). The 624824-186-R-J2-PDC line was cultured in 6C/Colon 1B media, which includes all 6A media components plus 50 ng/mL human EGF recombinant protein (Thermo Fisher Scientific, cat. PHG0311). […]
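Also: spheroids exposed to compounds for seven days before reading.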

Row | Structure (SMILES) | viability, T/C (compound alone 0.0316 µM) | viability, T/C (compound alone 0.1 µM) | viability, T/C (compound alone 1 µM) | viability, T/C (compound alone 10 µM) | further results
1 | CC(=O)c1c(C)c2cnc(Nc3ccc(N4CCNCC4)cn3)nc2n(C2CCCC2)c1=O | 87.1, 103, 84.6, 122% | 79.2, 111, 116, 89% |  |  | viability, T/C (compound alone 0.001 µM): 106, 93.6, 96.3, 132%
2 | C=CC(=O)N1CCN(c2nc(=O)n(-c3c(C)ccnc3C(C)C)c3nc(-c4c(O)cccc4F)c(F)cc23)C(C)C1 (stereo not given) | 80.9, 89.6, 120, 113% |  | 96.9, 111, 85.5, 108% |  | 
3 | COc1c(OCCCN2CCOCC2)ccc2c3n(c(=NC(=O)c4cnc(N)nc4)nc12)CCN3 | 84.4, 80.3, 96.8, 83.6, 87.7, 110, 81, 90.5% | 102, 96.3, 81.1, 85.8, 85.6, 93.4, 76.5, 88.1% |  |  | viability, T/C (compound alone 0.01 µM): 99.5, 102, 99.9, 76.4, 93.5, 92.4, 103% (2×)
4 | C#Cc1c(F)ccc2cc(O)cc(-c3ncc4c(N5CC6CCC(C5)N6)nc(OCC56CCCN5CC(F)C6)nc4c3F)c12 (stereo not given) |  | 93.4, 76.7, 121, 95.2% | 123, 86.3, 98.8, 89.3% | 100, 87.7, 116, 90.5% | viability, T/C (compound alone 3.16 µM): 116, 103, 119, 92.6%
5 | Cn1cnc2c(F)c(Nc3ccc(Br)cc3Cl)c(C(=O)NOCCO)cc21 |  |  |  |  | viability, T/C (compound alone 0.00949 µM): 87.2, 82.8, 85.3, 116%; viability, T/C (compound alone 0.03 µM): 75.6, 76.7, 87.8, 107%; viability, T/C (compound alone 0.0949 µM): 72.3, 89.9, 88, 105%; viability, T/C (compound alone 0.3 µM): 68.3, 70.2, 91.1, 115%
6 | CC(C)n1nc(-c2ccc3oc(N)nc3c2)c2c(N)ncnc21 |  |  |  |  | viability, T/C (compound alone 0.000316 µM): 72.2, 96.8, 117, 105%; viability, T/C (compound alone 0.00316 µM): 76.4, 127, 84.5, 90.6%; viability, T/C (compound alone 0.01 µM): 73, 81.5, 94, 100%
7 | CCN1CCN(Cc2ccc(Nc3ncc(F)c(-c4cc(F)c5nc(C)n(C(C)C)c5c4)n3)nc2)CC1 | 131, 83.4, 77.5, 98.9% | 106, 88.8, 104, 133% |  |  | viability, T/C (compound alone 0.01 µM): 99.2, 88.2, 73.7, 80.3%
8 | Cc1nc(NC(=O)N2CCCC2C(N)=O)sc1-c1ccnc(C(C)(C)C(F)(F)F)c1 (stereo not given) |  |  | 109, 78.6, 82.9, 83.6, 103, 97.5, 97.2, 105% | 75.1, 67.4, 81.5, 67.8, 97.8, 82.2, 85.6, 107% | viability, T/C (compound alone 0.316 µM): 81.5, 108 (2×), 74.8, 104, 84.9, 94, 103%; viability, T/C (compound alone 3.16 µM): 88.1, 82.5, 97.5, 79.6, 81.9, 107, 97.9, 92.5%
9 | CC1(C)CCC(CN2CCN(c3ccc(C(=O)NS(=O)(=O)c4ccc(NCC5CCOCC5)c([N+](=O)[O-])c4)c(Oc4cnc5[nH]ccc5c4)c3)CC2)=C(c2ccc(Cl)cc2)C1 | 88.7, 87.6, 115, 109% | 92.3, 98.3, 82.4, 109% |  | 62.6, 50.4, 86.5, 81.7% | 
10 | Cn1ncc(Cl)c1-c1cc(C(=O)NC(CN)Cc2cccc(F)c2)sc1Cl (stereo not given) | 114, 82.9, 93.1, 86.2% |  |  | 57.9, 92.8, 56.6, 58.9% | viability, T/C (compound alone 0.316 µM): 111, 71.7, 91.7, 91.3%
11 | CNC(=O)c1ccc(N2C(=S)N(c3ccc(C#N)c(C(F)(F)F)c3)C(=O)C2(C)C)cc1F |  |  |  | 81, 70.1, 118, 99% | 
12 | Cn1ncnc1[C@H]1c2n[nH]c(=O)c3cc(F)cc(c23)N[C@@H]1c1ccc(F)cc1 |  |  |  |  | viability, T/C (compound alone 0.001 µM): 96.9, 117, 87.5, 101%
13 | CC(Nc1ncnc2nc[nH]c12)c1cc2cccc(Cl)c2c(=O)n1-c1ccccc1 (stereo not given) | 91, 84.3, 83.3, 97.2, 94.7, 110, 81.6, 86.8% |  | 106 (3×), 108, 72.2, 107, 88.9, 104% |  | viability, T/C (compound alone 3.16 µM): 93.8, 95.1, 91.7, 99.8 (2×), 123, 73.9, 111%
14 | C[C@@H](NC(=O)c1ncnc(N)c1Cl)c1ncc(C(=O)Nc2cc(C(F)(F)F)c(Cl)cn2)s1 |  |  | 86.7, 109, 77.4, 96.5% |  | viability, T/C (compound alone 3.16 µM): 88.2, 116, 114, 113%
15 | CC1(C)CCC(Nc2ncc(C(F)(F)F)c(-c3c[nH]c4c(P(C)(C)=O)c(C#N)ccc34)n2)CN1 (stereo not given) |  |  | 57.8, 54.8, 32.2, 39.7% | 50, 39.2, 25.5, 24.2% | viability, T/C (compound alone 0.316 µM): 79.7, 91.1, 51.6, 56.4%; IC50 (compound alone): > 10 µM, 2.03 µM, 343 nM, 459 nM
16 | CC(Nc1ccc2c(c1)OCCn1cc(N3C(=O)OCC3C(F)F)nc1-2)C(N)=O (stereo not given) | 91.6, 90.9, 82.2, 107, 120, 110, 68.5, 90.1% |  |  |  | viability, T/C (compound alone 0.00316 µM): 106, 117, 90.2, 108, 119, 86.2, 78.6, 102%
17 | CC(C)NCC(C(=O)N1CCN(c2ncnc3c2C(C)CC3O)CC1)c1ccc(Cl)cc1 (stereo not given) | 106, 116, 88.3, 111% |  |  | 107, 93.7, 79.8, 118% | 
18 | CCCS(=O)(=O)Nc1ccc(F)c(C(=O)c2c[nH]c3ncc(-c4ccc(Cl)cc4)cc23)c1F |  |  |  |  | viability, T/C (compound alone 3.16 µM): 58, 80.5, 87.1, 70%
19 | CC(Cn1ccc(-c2ccc(C#N)c(Cl)c2)n1)NC(=O)c1cc(C(C)O)[nH]n1 (stereo not given) | 96.3, 90.1, 92.3, 126% | 83.4, 108, 83.2, 120% | 95.4, 78.5, 96, 104% | 76, 87.8, 82.4, 133% | viability, T/C (compound alone 0.316 µM): 105, 92.8, 118, 108%
20 | Cn1nccc1Nc1nccc(-c2ccn(C(CO)c3ccc(Cl)c(F)c3)c(=O)c2)n1 (stereo not given) | 99.8, 118, 85.5, 102% |  | 77.3, 86.7, 82.2, 125% |  | 
